Results published in the supplement of paper PMC11417369.
The other results are listed elsewhere or left out.

system: PF3D7_0420300 AP2 domain 1 (GST-tagged); experiment: gcPBM binding intensity (ln(normalized median fluorescence intensity)); higher = stronger DNA binding
Method in brief: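 The binding buffer was 1× PBS containing 1% milk, 0.2 mg/ml BSA, 0.5% salmon testes DNA and 0.03% Triton X-100. In it, GST-tagged P. falciparum DNA-binding domains expressed in E. coli were applied for 1 h to an Agilent 4 × 180k array of primer-extended double-stranded 36-bp intergenic genomic probes plus negative controls. Binding intensity, read with Alexa488 anti-GST antibody and a 488 nm scan, is the highest Masliner-normalised natural-log median intensity across replicate spots of either probe orientation.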

| Sequence | gcPBM binding intensity (ln) |
| --- | --- |
| AAGGAGCCTATGAACACACACATGTACAGATATTAA [CACACA_site6107] | 9.66 |
| CAAAATTATCAGAATCGTACATTTTTAACATATAAT [XGTACX_site7909] | 9.09 |
| AAAACTATATTAATGTGTACACATCAAAATATTAAT [XGTACX_site6767] | 9.33 |
| TTACAAAACACTTATACACACATATATATATATATA [CACACA_site2716] | 9.42 |
| TAATATATTAAAAATAGTACATAAGAAAAATAAGTA [XGTACX_site7957] | 9.6 |
| TATATATATAACATTGTACACACAAAGAAATAATAT [CACACA_site8998] | 9.7 |
| ATCGGTATATTATTACATGAATAAACTTACACACAC [TGCATGCA_negctrl_site21] | 9.94 |
| TTGTATTAATAATTTTTTATATTATAGTTTATAATA [GTGCAC_negctrl_site130] | 9.08 |
| TATATATAAAATGTATGTACATATTTATTTATATAG [XGTACX_site657] | 9.02 |
| AAGTGAAATAAAATATGTACATATATGTATATATAA [XGTACX_site4473] | 9.31 |
| AAAAAAAAAGAATGTGAACACACACCGTGAATATAA [CACACA_site8342] | 9.57 |
| TTTTTTCTTCGTGTATTAAGTCACAATAGGAAAAAA [GTGCAC_negctrl_site644] | 8.72 |
| TGTATTTATAGACACACACACTTTCTTTTTTTAAGA [CACACA_site7010] | 9.6 |
| AACAATTAGAACTTTGCACACTTCTATATATTTTGT [CACACA_site674] | 9.6 |
| TACATATATAAAAAAACACACACATATATATATATA [CACACA_site8315] | 9.54 |
| TGTATAATAAGGAAGAGTACAAGTAAATACACACAT [XGTACX_site2084] | 9.87 |
| AAAATGCATTTGATGTGTACGCATTATAAAGAACAA [XGTACX_site4203] | 9.19 |
| CAAATAGCTAGCTGTGCACACAAACATATTTTCCAA [CACACA_site879] | 9.46 |
| CACAAACAAAGACACACACACACACGCACAAAAATG [CACACA_site7193] | 10.1 |
| TAGCCCACATTTAATGGTACAGTGAGTATATATATG [XGTACX_site8044] | 9.27 |
| ATGGAAATAAAAAAAAAAAAAAAAAAAAATATATAT [GTGCAC_negctrl_site67] | 9.3 |
| TACATAAAATACCATGCATGCTAGTAAAAAAAAAAA [TGCATGCA_site650] | 9.24 |
| TAATATATTTATAGAGCATGCAACGTAATATTATTA [TGCATGCA_site863] | 9.28 |

| Sequence | gcPBM binding intensity (ln) |
| --- | --- |
| ATCCCAGTAATATATAGTACATAACTATAAGAGAAT [XGTACX_site6909] | 9.5 |
| AAAGCACGCAAGAATACACACAAATATTATAAAAAA [CACACA_site6206] | 9.53 |
| TAAAAAATTATAAAATGTACATAAAAAAAAAAAAAA [XGTACX_site3376] | 9.19 |
| AGGAAAACAAAAGATGCATGCTAATTTTCCTCGCGT [TGCATGCA_site627] | 9.28 |
| CTGAAGAAACTACAACGTACAAAATATGTATATATT [XGTACX_site3779] | 9.33 |
| TTTATTAATTAAACCATACACACATAATTTTTTTAT [CACACA_site842] | 9.47 |
| AAACGTGCGTATATGTGTACGCATATATATATATAT [XGTACX_site5252] | 9.27 |
| AGAAAAAAAATGTATACACACAAATATAAAGAAGGA [CACACA_site3806] | 9.84 |
| AAAATTAATAAATGAGAAAAAAGGATGAATAATGAG [CACACA_negctrl_site1614] | 9.57 |
| ATGATATGGATAAATACACACAATATAATAATGTCT [CACACA_site1433] | 9.66 |
| CATATATACTCATACACACACACACCGACACAGACA [CACACA_site5026] | 10.1 |
| TATGATGAGATAACAAAAGTTGTACTTTTTTTTTTT [CACACA_negctrl_site1172] | 8.95 |
| ATATTTTTTAGGGTCACACATACTTATTATATAAAT [CACACA_site4926] | 9.39 |
| AATATTTAACACCTTATACACACTTTCTTCCTTTTT [CACACA_site785] | 9.74 |
| ATGAATTTTTCTCTACAAAAGGATATAATAAAAATA [XGTACX_negctrl_site461] | 8.79 |
| TAGTGTGCCAAATTAGCACACACATATATACATGAA [CACACA_site8910] | 9.42 |
| TTTTCTAATTAATATTGTACATAAATGTATATATAT [XGTACX_site4749] | 9.05 |
| ATCAAAGATAAATTTACACACATATAAATATAAATA [CACACA_site7409] | 9.53 |
| GTTTTTATCATATCATGTACGTATTTTATTTTTTTT [XGTACX_site8643] | 9.81 |
| CTTCTGGACAGGAATGCACACATTTTTTTTTCTTTT [CACACA_site1807] | 9.51 |
| TATATATATATATATTGTACAAAGATTAATATATAA [XGTACX_site8433] | 9.12 |
| ACTTAATTTTTTTATTGTACATGTAAATGAGGGAAA [XGTACX_site6305] | 9.04 |
| TATTTTAATAAGAATAAATGAAATGAAATGAAATAT [CACACA_negctrl_site823] | 9.28 |

| Sequence | gcPBM binding intensity (ln) |
| --- | --- |
| ACATCCTATAAATAGAGTACGTAAATTATAATACAC [XGTACX_site5338] | 9.4 |
| TAAAACAAAATGGTAACACACACATATATATATATA [CACACA_site8590] | 9.61 |
| AAATGACGAAATAAAATCATAAATTAAAATAAATAA [CACACA_negctrl_site655] | 9.23 |
| ATAGCATTTCACAAATGTACATAAAAAAATAAAAAT [XGTACX_site402] | 9.27 |
| TCCTATCATTTATATTTTACTACATAATATTGATAA [GTGCAC_negctrl_site286] | 9.25 |
| AAATGGAAATTAATATGTACATATTTATAAGTATGA [XGTACX_site1774] | 9.31 |
| TTATTTTTTGTATGAACACACAACTTAATTATGATG [CACACA_site2448] | 9.37 |
| ATGTTTCTATAGATTTGTACATATTTCATATGAATA [XGTACX_site1053] | 9.3 |
| TCTTTTCTTTTGTGTGTGCACATATAAGCATGAAAC [GTGCAC_site9910] | 9.6 |
| TTTTTTAATTAATTACCTTTGAATGTGTATTAGGAC [GTGCAC_negctrl_site651] | 9 |
| TTTTACAAATATTTCTGTACACATTCTCATATAATT [XGTACX_site1974] | 9.41 |
| CCCCTATAAATAGGGTGTACTAATAAATATTTTTAA [XGTACX_site1244] | 9.17 |
| ACGGGCGACACATAAGTGCGCAAAAAAAAAAAAATA [GTGCAC_site9688] | 8.94 |
| TAAAATAAAAAGTTTACACACATATATAACTTTAAT [CACACA_site6456] | 9.45 |
| GAAAAGTATAAAAAACGTACAAGTTTTATTTTCACA [XGTACX_site4604] | 9.19 |
| TTTTATAAAACATGTAGTACATGAAAAAAAAAATTT [XGTACX_site1626] | 9.12 |
| AAAATACAGAAACACACACACACACCCATATATATA [CACACA_site3559] | 10.3 |
| GTATTCATTCCTTGAGTGCAATTGCAATAAATAAAA | 9 |
| CATATTAAGATGTGTACACATTTTTATTTTTTTTTT [CACACA_site4425] | 9.27 |
| TATTACATAATATATGTACACACGCAAATACTTATA [CACACA_site7994] | 9.44 |
| TAACAACGATACAATTGTACAAATTATATATATATA [XGTACX_site4687] | 9.42 |
| CAAAAAAAGTTATACACACACACACGGATATAAATA [CACACA_site6619] | 10.1 |
| AGCAAGACGGGGTGCACACAAACTAATATGCCGAAT [CACACA_site159] | 9.58 |

| Sequence | gcPBM binding intensity (ln) |
| --- | --- |
| AATAATATATTATATGCATGTGTATAATTTGATATA [TGCATGCA_site1058] | 9.19 |
| TTTGGTTATTTGACCTGTACACATTTAATTATTTTT [XGTACX_site5170] | 9.48 |
| CAAAGGAAATGGTGTACACAATTTTTCCTTTTTCGT [CACACA_site4800] | 9.06 |
| ACAAGTATTCCTTTTGCACACCTTTCTGCACCTTAT [CACACA_site3873] | 9.66 |
| ATTATGAATTTAAGACGTACAAAAAATTTTTATTCA [XGTACX_site5682] | 9 |
| AAATACTTATTCGTGGTGCAACAATTTTAAAAATTA | 9 |
| ATTAAAATAATACGTACACACATGTATAATACATAT [CACACA_site1005] | 9.63 |
| TAATATATTTTTAACATGCACTGTATTTTAATATAT | 9.2 |
| TCTGGATTGGATTACAAGAAAATAAAATATAAAATA [CACACA_negctrl_site122] | 8.87 |
| TATACAAATATATATGCACACACATATATGTATATG [CACACA_site9007] | 9.58 |
| TAATTAAAGTTATCTACACACCTTTATAGATATATA [CACACA_site7778] | 9.31 |
| TATAAAACAAATATATGTACATATCATAGTATAATA [XGTACX_site2965] | 9.4 |
| TATAACACACAATGATGTACATTACATTATTTTTTA [XGTACX_site2076] | 9.25 |
| AATATAATATACATATGTACATATATATATATATAT [XGTACX_site8218] | 9.21 |
| ATATATATATATATGTGTACATATTTTTTTGAAGTG [XGTACX_site248] | 9.2 |
| TAATATAAATGAAAGGTGCTTTTGCTTTCTTTTTTT | 9.16 |
| TTTTCTATATAACAACGTACATTTATTATATTATAA [XGTACX_site6148] | 9.21 |
| AAAAAAAAAAAAAATACACACACACCGATATATATA [CACACA_site8142] | 10.1 |
| ATACATATAATAATATGTACATATAATTATATATAT [XGTACX_site913] | 9.14 |
| TTATACTGTACAAAAAGAATAGCAGTATAACAAAAA [CACACA_negctrl_site755] | 9.38 |
